Experimental data reported in PMC5700166.
The list shows a part of the results, in another mix than the full data. The list includes weakly bound sequences.

Tests used:
Experiment in all cases: protein-binding microarray (PBM)
Conditions in all cases: PBM: ~300 nM protein, 6 mM HEPES pH 7.8, 80 mM KCl, 0.5 mM EDTA, 0.5 mM EGTA, 6% glycerol, 35 ng/ul poly-dIdC, 1% milk, 1 h, room temperature; Ap Aiptasia and Nv Nematostella (sea anemones) / Co Capsaspora / Aq Amphimedon (sponge) / Dm Drosophila / Hu human; RHD is the Rel homology domain; high values mean tight binding; most listed sequences are background and not binding sites; double strand, one strand shown
[1] = target: T1, GST-Ap-NF-kB RHD (UniProt A0A913YAJ5)
T1 sequence: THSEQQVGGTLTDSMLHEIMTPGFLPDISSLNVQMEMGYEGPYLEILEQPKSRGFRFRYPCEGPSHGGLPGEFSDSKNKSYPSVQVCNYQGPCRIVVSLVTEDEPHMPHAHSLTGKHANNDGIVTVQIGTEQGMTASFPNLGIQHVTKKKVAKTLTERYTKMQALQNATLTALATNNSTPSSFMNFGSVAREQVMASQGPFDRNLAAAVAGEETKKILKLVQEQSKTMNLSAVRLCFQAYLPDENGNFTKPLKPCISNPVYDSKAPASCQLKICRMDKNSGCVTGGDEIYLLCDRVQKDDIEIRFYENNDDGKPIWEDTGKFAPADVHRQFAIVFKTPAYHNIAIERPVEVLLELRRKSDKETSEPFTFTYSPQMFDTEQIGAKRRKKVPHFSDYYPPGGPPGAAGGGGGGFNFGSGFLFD

[2] = target: T2, GST-Nv-NF-kB (Cys allele) (UniProt E5G601)
T2 sequence: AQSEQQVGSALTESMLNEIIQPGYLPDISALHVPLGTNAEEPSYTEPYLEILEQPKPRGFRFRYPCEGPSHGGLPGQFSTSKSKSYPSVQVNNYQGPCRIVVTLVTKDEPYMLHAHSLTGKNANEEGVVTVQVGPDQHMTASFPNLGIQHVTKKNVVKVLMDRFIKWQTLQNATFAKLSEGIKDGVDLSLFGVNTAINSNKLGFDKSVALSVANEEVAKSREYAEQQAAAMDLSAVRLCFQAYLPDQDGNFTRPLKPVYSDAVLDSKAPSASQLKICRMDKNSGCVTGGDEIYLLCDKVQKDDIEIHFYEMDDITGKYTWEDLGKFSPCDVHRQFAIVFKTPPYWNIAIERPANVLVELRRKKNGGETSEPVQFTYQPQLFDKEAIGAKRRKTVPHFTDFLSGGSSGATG

[3] = target: T3, GST-Co-NF-kB (UniProt F1ARL5)
T3 sequence: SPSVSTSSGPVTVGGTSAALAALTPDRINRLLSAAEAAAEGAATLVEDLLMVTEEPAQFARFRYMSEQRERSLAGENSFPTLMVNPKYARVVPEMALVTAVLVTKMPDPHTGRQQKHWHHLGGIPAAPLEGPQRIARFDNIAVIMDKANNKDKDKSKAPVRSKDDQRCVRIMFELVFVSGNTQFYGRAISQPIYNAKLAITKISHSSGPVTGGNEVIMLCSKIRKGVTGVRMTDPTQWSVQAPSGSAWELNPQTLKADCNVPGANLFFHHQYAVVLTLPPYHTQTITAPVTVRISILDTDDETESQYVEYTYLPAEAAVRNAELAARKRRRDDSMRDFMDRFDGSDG

[4] = target: T4, GST-Dm-Relish (UniProt Q94527)
T4 sequence: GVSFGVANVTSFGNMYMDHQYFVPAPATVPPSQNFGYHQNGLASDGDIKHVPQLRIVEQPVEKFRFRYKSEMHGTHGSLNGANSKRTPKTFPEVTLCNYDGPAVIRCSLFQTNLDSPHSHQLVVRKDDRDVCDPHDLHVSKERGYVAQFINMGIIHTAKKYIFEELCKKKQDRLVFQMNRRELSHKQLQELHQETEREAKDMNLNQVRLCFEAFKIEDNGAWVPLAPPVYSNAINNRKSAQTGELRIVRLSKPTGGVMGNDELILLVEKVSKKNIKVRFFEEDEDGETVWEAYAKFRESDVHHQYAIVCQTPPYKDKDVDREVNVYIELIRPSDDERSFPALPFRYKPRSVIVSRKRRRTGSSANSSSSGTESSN

[5] = target: T5, GST-Aq-NF-kB (UniProt A9Y5G7)
T5 sequence: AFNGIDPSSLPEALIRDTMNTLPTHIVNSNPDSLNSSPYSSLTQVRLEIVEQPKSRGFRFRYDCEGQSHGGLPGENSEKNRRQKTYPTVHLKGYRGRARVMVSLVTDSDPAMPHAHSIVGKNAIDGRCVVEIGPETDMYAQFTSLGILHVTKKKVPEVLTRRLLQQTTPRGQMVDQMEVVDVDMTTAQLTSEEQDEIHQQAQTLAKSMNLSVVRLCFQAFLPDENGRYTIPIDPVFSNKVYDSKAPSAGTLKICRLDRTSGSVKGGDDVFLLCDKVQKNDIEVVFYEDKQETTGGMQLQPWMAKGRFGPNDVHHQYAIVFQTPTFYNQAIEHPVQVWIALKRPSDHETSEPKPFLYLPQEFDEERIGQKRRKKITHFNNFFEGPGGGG

Sequence | binding signal [1] | binding signal [2] | binding signal [3] | binding signal [4] | binding signal [5]
CCGATTAACATCACCGAATTTCCTGATGTTAATCGGGTCTTGATTCGCTTGACGCTGCTG | 0.888 z-score | 0.173 z-score | 0.319 z-score | 0.886 z-score | 0.97 z-score
CCGATTAACATCAAAAATTCCGATGATGTTAATCGGGTCTTGATTCGCTTGACGCTGCTG | -0.467 z-score | -0.083 z-score | 0.113 z-score | 0.741 z-score | 0.888 z-score
CCGATTAACATCATCGGAAACGCTGATGTTAATCGGGTCTTGATTCGCTTGACGCTGCTG | -0.252 z-score | -0.325 z-score | -0.978 z-score | -0.436 z-score | -0.428 z-score
CCGATTAACATCAGGAATTTTGATGATGTTAATCGGGTCTTGATTCGCTTGACGCTGCTG | -0.391 z-score | -0.158 z-score | -0.254 z-score | -0.00823 z-score | 0.598 z-score
CCGATTAACATCAGCGGATCCGTTGATGTTAATCGGGTCTTGATTCGCTTGACGCTGCTG | -0.223 z-score | -0.134 z-score | -1.73 z-score | -1.12 z-score | -0.4 z-score
CCGATTAACATCAGAAATTCCACTGATGTTAATCGGGTCTTGATTCGCTTGACGCTGCTG | 0.333 z-score | -0.00805 z-score | -0.163 z-score | 0.472 z-score | 0.719 z-score
CCGATTAACATCAGCGATTCCTTTGATGTTAATCGGGTCTTGATTCGCTTGACGCTGCTG | -0.78 z-score | -0.423 z-score | -0.173 z-score | -0.631 z-score | -0.524 z-score
CCGATTAACATCAACTCACCGTCTGATGTTAATCGGGTCTTGATTCGCTTGACGCTGCTG | 0.23 z-score | 0.118 z-score | -0.319 z-score | 0.0223 z-score | -0.381 z-score
CCGATTAACATCAAAAAGACTAATGATGTTAATCGGGTCTTGATTCGCTTGACGCTGCTG | -0.978 z-score | -0.648 z-score | -0.821 z-score | -0.147 z-score | -0.292 z-score
CCGATTAACATCAAGTCACGGGTTGATGTTAATCGGGTCTTGATTCGCTTGACGCTGCTG | -0.107 z-score | -0.389 z-score | -0.538 z-score | -0.163 z-score | -0.144 z-score
CCGATTAACATCAAATTGCTGCGTGATGTTAATCGGGTCTTGATTCGCTTGACGCTGCTG | -0.161 z-score | -0.273 z-score | -0.0769 z-score | -0.786 z-score | -0.422 z-score
CCGATTAACATCAGTAATATTTATGATGTTAATCGGGTCTTGATTCGCTTGACGCTGCTG | -0.82 z-score | 0.109 z-score | -0.236 z-score | 0.241 z-score | -0.287 z-score
CCGATTAACATCAGCTTTATTTCTGATGTTAATCGGGTCTTGATTCGCTTGACGCTGCTG | -0.454 z-score | -0.302 z-score | -0.36 z-score | -0.323 z-score | -0.266 z-score
CCGATTAACATCAGGAATTCCCCTGATGTTAATCGGGTCTTGATTCGCTTGACGCTGCTG | 11.7 z-score | 12.5 z-score | 7.64 z-score | 9.99 z-score | 11.5 z-score
CCGATTAACATCACTCTCATAAGTGATGTTAATCGGGTCTTGATTCGCTTGACGCTGCTG | -0.659 z-score | -0.0545 z-score | -0.711 z-score | -0.476 z-score | -0.533 z-score
CCGATTAACATCACACTATCTACTGATGTTAATCGGGTCTTGATTCGCTTGACGCTGCTG | 0.0945 z-score | 0.124 z-score | 0.471 z-score | 0.283 z-score | -0.268 z-score
CCGATTAACATCATAGGTTCTCGTGATGTTAATCGGGTCTTGATTCGCTTGACGCTGCTG | 0.477 z-score | -0.972 z-score | 0.511 z-score | -0.5 z-score | -0.342 z-score
CCGATTAACATCAGGAACTATCCTGATGTTAATCGGGTCTTGATTCGCTTGACGCTGCTG | -0.848 z-score | 0.459 z-score | -0.514 z-score | -0.403 z-score | -0.231 z-score
CCGATTAACATCAAGGAAGCGCTTGATGTTAATCGGGTCTTGATTCGCTTGACGCTGCTG | -0.733 z-score | -0.208 z-score | -1.11 z-score | -0.89 z-score | -0.742 z-score
CCGATTAACATCAATCGGGAGCGTGATGTTAATCGGGTCTTGATTCGCTTGACGCTGCTG | 0.333 z-score | 0.833 z-score | 0.287 z-score | -0.316 z-score | 0.0987 z-score
CCGATTAACATCATTTGCGGTGCTGATGTTAATCGGGTCTTGATTCGCTTGACGCTGCTG | 0.673 z-score | -0.227 z-score | -0.0282 z-score | -0.0395 z-score | 0.207 z-score
CCGATTAACATCAGGAATATTCATGATGTTAATCGGGTCTTGATTCGCTTGACGCTGCTG | -0.259 z-score | 0.385 z-score | -0.474 z-score | -0.472 z-score | -0.0688 z-score
CCGATTAACATCAACGGTGGAAATGATGTTAATCGGGTCTTGATTCGCTTGACGCTGCTG | 0.826 z-score | -0.229 z-score | 0.075 z-score | -0.3 z-score | 0.383 z-score
CCGATTAACATCAACGTTCAGGTTGATGTTAATCGGGTCTTGATTCGCTTGACGCTGCTG | -0.735 z-score | 0.524 z-score | -0.625 z-score | -0.807 z-score | -0.635 z-score
CCGATTAACATCATCGGACCGGCTGATGTTAATCGGGTCTTGATTCGCTTGACGCTGCTG | -0.0811 z-score | -0.957 z-score | -0.988 z-score | -0.948 z-score | -0.461 z-score
CCGATTAACATCATACTGGGCGCTGATGTTAATCGGGTCTTGATTCGCTTGACGCTGCTG | 0.205 z-score | -0.657 z-score | -0.143 z-score | -0.501 z-score | -0.253 z-score
CCGATTAACATCATTCGAATATGTGATGTTAATCGGGTCTTGATTCGCTTGACGCTGCTG | -1.14 z-score | -0.654 z-score | -0.379 z-score | 0.165 z-score | -0.668 z-score
